Measured values taken from PMC4336329 (PLoS ONE, 2015).
The whole screen tested about 310,000 compounds, of which about 14,000 (4.5%) showed an effect of 50% or more. The effect is printed as a negative number. The list shows a part of the results.

What follows are compounds tested against human ether-à-go-go-related gene (hERG) potassium channel (human, UniProt Q12809) (assay: primary screen, population patch clamp on CHO cells stably expressing hERG).
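Note: peak tail current of the secondary pulse compared with the same well before compound.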

Sequence of human ether-à-go-go-related gene (hERG) potassium channel (Q12809 whole entry, looked up): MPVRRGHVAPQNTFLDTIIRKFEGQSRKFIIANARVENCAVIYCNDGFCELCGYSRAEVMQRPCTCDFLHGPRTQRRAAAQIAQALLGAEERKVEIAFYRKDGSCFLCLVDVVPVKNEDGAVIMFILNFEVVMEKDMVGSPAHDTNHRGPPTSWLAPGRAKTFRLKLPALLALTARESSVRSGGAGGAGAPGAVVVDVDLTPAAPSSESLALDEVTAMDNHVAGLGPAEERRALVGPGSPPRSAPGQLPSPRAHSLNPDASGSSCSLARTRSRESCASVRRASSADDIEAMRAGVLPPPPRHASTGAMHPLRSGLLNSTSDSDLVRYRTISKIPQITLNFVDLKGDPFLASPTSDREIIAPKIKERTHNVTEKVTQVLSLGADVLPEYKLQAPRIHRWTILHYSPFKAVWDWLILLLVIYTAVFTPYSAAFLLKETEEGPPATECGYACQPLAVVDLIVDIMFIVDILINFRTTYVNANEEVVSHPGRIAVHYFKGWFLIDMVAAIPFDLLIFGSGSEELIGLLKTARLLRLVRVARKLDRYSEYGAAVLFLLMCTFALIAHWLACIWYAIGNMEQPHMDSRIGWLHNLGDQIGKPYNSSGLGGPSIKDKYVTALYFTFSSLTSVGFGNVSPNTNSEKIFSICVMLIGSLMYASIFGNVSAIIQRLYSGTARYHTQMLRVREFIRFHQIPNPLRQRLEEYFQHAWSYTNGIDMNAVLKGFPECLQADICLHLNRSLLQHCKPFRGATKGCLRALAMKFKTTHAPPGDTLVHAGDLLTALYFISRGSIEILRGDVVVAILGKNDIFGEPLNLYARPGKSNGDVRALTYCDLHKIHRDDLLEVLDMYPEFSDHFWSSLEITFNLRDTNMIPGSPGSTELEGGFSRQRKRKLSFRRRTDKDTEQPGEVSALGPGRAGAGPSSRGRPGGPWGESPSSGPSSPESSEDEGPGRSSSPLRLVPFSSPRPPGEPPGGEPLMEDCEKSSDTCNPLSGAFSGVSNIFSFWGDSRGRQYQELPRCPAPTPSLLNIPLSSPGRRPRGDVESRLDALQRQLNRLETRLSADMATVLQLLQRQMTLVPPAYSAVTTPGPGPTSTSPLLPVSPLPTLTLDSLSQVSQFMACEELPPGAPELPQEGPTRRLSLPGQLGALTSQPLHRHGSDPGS

Compound	hERG current change (%, negative = inhibition) at 10uM
O=C(NCCc1c[nH]c2ccccc12)c1ccccc1	4.79%
CC(=O)SC1CC(=O)N(c2ccc(C(C)(C)C)cc2)C1=O (centres unmarked)	9.99%
O=C(NCc1cccnc1)C(=O)c1c[nH]c2ccccc12	2.44%
Nc1nc2nc(-c3ccccc3)cc(=O)n2[nH]1	14.4%
CCOC(=O)c1oc2c(CN3CCN(CCO)CC3)c(O)c(CC)cc2c(=O)c1-c1nc2ccccc2s1	14.6%
C/C(=N/NC(=O)C1CCCC1)c1ccc(NC(=O)C(F)(F)F)cc1	23.5%
COc1ccc(NC(=O)[C@@H]2CCCN2S(=O)(=O)c2cccc3cccnc23)cc1	-8.16%
CSc1ncc(Cl)c(C(=O)NCc2cccnc2)n1	9.98%
CC1=C(C(=O)OCc2ccccc2)C(c2cccs2)N2C(=O)CCSC2=N1 (centres unmarked)	17.7%
Cc1cc(/C=C2\SC(=O)N(C)C2=O)c(C)n1-c1ccc(O)cc1	3.54%
O=C(CCCn1ncn2c(cc3occc32)c1=O)NCc1cccc(Cl)c1	-61.3%
COc1ccc(NC(=O)C(F)(OC)C(F)(F)F)c(OC)c1 (centres unmarked)	-14.8%
O=C(C[n+]1cccc(Br)c1)c1ccc(-c2ccccc2)cc1.[Br-]	-45.1%
CCn1c(SCC(=O)Nc2cccnc2Cl)nnc1-c1ccccc1	-16.2%
CCOc1ccc(N(CC(=O)NCCc2ccccc2)S(=O)(=O)c2ccccc2)cc1	20.5%
CC(Sc1nc2ccccc2[nH]1)C(=O)NC1CCCCC1C (centres unmarked)	14.4%
Cc1ccc2cccc(OCc3nnc(SCC(=O)O)n3C)c2n1	16.9%
S=c1[nH]nc(CCc2nc3ccccc3[nH]2)n1-c1ccccc1	13%
O=C(Nc1cccnc1Cl)c1cc(-c2ccc(Br)cc2)on1	36.8%

Compound	hERG current change (%, negative = inhibition) at 10uM
Cc1cc2ccccc2c(=O)n1CC(=O)N(C)c1ccc(F)cc1	-2.62%
O=C(Nc1ccccc1)Nc1nc(-c2ccc(F)cc2)cs1	14.6%
CC(C)(C)OC(=O)N1CCC(CC2CC(c3cccc(Br)c3)=NO2)(C(=O)NCC2CCCCC2)CC1 (centres unmarked)	13.7%
COc1ccc(OC)c(NC(=O)CSc2n[nH]c(-c3cccnc3)n2)c1	-9.92%
C/C(Cn1nnc([N+](=O)[O-])n1)=N\NC(=O)c1ccc(Cl)c(Cl)c1	-33.3%
Cc1cccc(-n2ccnc2SCC(=O)Nc2ccc3c(c2)OCCO3)c1	-14%
CC1CCCN(c2sc(S(C)(=O)=O)nc2S(=O)(=O)c2ccc(Cl)cc2)C1 (centres unmarked)	16.7%
CCCCCn1c(=NC(=O)c2cccnc2)c(C#N)cc2c(=O)n3cccc(C)c3nc21	-54.8%
Cc1ccc(Cl)cc1N1CCN(C(=O)c2cc3c(=O)[nH]c4ccccc4c3n2C)CC1	8.91%
Cc1nc2ccccn2c1-c1ccnn1S(=O)(=O)c1ccc(F)cc1	-36.4%
Cc1ccc(S(=O)(=O)Nc2nonc2C)cc1	6.42%
CN(C(=O)CC(NC(=O)c1ccccc1)(c1ccccc1)c1ccccc1)c1ccccc1	-8.47%
Cc1cc(Br)ccc1NC(=O)CN(C)C(=O)C1CSC2(C)CCC(=O)N12 (centres unmarked)	11.5%
CC(=O)Nc1ccc(NC(=O)CCCc2ccccc2)cc1	-0.104%
COc1cccc2cc(C(=O)NC3CC(C)(C)NC(C)(C)C3)c(=O)oc12	5.96%
C=C(C)CNC(=S)N/N=C/c1ccco1	9.04%
CCCN(CC(=O)Nc1ccccc1C)C(=O)c1ccc(COc2ccccc2)cc1	1.84%
COC(=O)c1ccc(OC(=O)c2cccnc2SC)cc1	28.4%
CC(=O)Nc1ccc(NS(=O)(=O)C(F)(F)F)cc1	31.2%

Compound	hERG current change (%, negative = inhibition) at 10uM
COc1ccccc1N1CCN(CC(=O)c2ccc3ccn(C(C)=O)c3c2)CC1	-4.21%
CCOC(=O)c1c(C)[nH]c(C(=O)OCC(=O)Nc2cc(Cl)ccc2OC)c1C	-30.3%
CCOc1ccc(NC(=O)c2cccc(OC(=S)N3CCOCC3)c2)cc1	0.648%
O=C(O)c1ccccc1C(=O)Nc1ccc(-n2ccc(C(F)(F)F)n2)cc1	17.4%
Cc1ccc(NC(=S)NC(=O)c2c(-c3ccccc3Cl)noc2C)cc1	-5.95%
C=CCOc1ccc(C2C3=C(CCCC3=O)N(CC(=O)O)C3=C2C(=O)CCC3)cc1OCC	3.63%
CN(CCc1cnn(C)c1)C(=O)C1CCC(=O)N(CC2CCCCC2)C1 (centres unmarked)	19.4%
COC(=O)[C@H]1C[C@H]1[C@@H](NC(=O)c1cccnc1)c1ccccc1	5.42%
COc1cc(/C=N/NC(=O)C(=O)NCC2CCCO2)ccc1O (centres unmarked)	16.4%
O=C(CN(C(=O)Cn1nnc(-c2ccccc2F)n1)c1cnc2ccccc2c1)NCC1CCCO1 (centres unmarked)	-26.1%
O=C(O)c1ccccc1C(=O)NCc1ccccc1	-3.04%
OC(C#Cc1ccccn1)c1cccs1 (centres unmarked)	3.9%
COc1ccc(C2C(C#N)=C(N)Oc3n[nH]c(-c4ccccn4)c32)c(OC)c1OC (centres unmarked)	11%
CCN1CCN(C(=O)c2cccc(OC3CCN(S(=O)(=O)N(C)C)CC3)c2)CC1	24.3%
Fc1ccccc1COc1ccc(/C=N/n2cnnc2)cc1	-12.2%
CCCC1C(C#N)=C(N)Oc2n[nH]c(C(C)(C)C)c21 (centres unmarked)	-3.31%
CC(=O)N/C(=C\c1ccccc1)C(=O)OCC(=O)NC(C)C12CC3CC(CC(C3)C1)C2 (centres unmarked)	-1.62%
COc1ccc(OC)c(NC(=O)Nc2ccccc2C)c1	8.74%
